# Reference: PubChem BioAssay (NCATS)
# Values joined by “and” are separate entries in the source; they are usually repeats but may differ in a detail not shown here. Equal values may be shown once. Inconclusive results, whose numbers are uncertain, are shown with a selection of clear calls. Potencies beside an inconclusive call are fits to weak or partial responses and may not hold up. Active and inactive are the calls of the source. Calls come from the whole dose curve; as a rule, active = well fitted cell-killing curve with a large enough effect; inconclusive = small, poorly fitted or top-dose-only effect; inactive = no such curve, though single readings can be large or run the other way.
# Assay: qHTS of pediatric cancer cell lines to identify multiple opportunities for drug repurposing: Primary screen for A673 cells (AID 1347092); note: nearly all actives have a fitted effect of over 45% in size
# Conditions: A673 Ewing sarcoma viability, CellTiter-Glo ATP luminescence, 48 h; activity change, negative = cytotoxic: at 46 µM (top of the series)
# Excerpt: Drug repurposing or repositioning has been offered as a strategy for drug development in oncology programs. This approach has special potential for childhood cancers and other rare or orphan diseases, where the expected return on new drug development has been a disincentive to pharmaceuticals. […] In this project we exploit the poly-pharmacology of drugs to discover new indications via phenotypic screening of a panel of 19 well-characterized cell lines derived from solid tumors seen in children and adolescents. The goal is to identify approved drugs with previously unrecognized anticancer properties that has the potential to reveal new mechanisms and biological processes involved in carcinogenesis or drug resistance. We employed a titration-based paradigm (quantitative high-throughput screening or qHTS), where all compounds were tested at multiple concentrations for their effect on cell viability. Concentration-response curves (CRCs) were derived directly from the primary screen, and both potency and efficacy values were used to identify compounds with robust bioactivity profiles. We screened the NIH Chemical Genomics Center (NCGC) Pharmaceutical Collection (NPC) and Mechanism Interrogation Plate (MIPE) small molecule collections of approved and investigational compounds against these cell lines; and measured metabolically active cells after 48 hours of compound treatment as a proxy for cell viability. […] Assay Submitter: Nathalia J. Martinez, National Center for Advancing Translational Sciences, National Institutes of Health, Rockville, MD, USA; email: natalia.martinez@nih.gov. Shen, M et al. Quantitative high-throughput phenotypic screening of pediatric cancer cell lines identifies multiple opportunities for drug repurposing. Oncotarget 2017 Dec 19;9(4):4758-4772. PMID 29435139.
# The cells were obtained from University of North Carolina (UNC), Pediatric Preclinical Testing Program (PPT), and Coriell Institute (CI). qHTS cell viability assay: Cells were assayed in growth media at a density of 500-1,000 cells/well. Five microliters of cells were dispensed into 1,536-well, white, solid-bottom, TC-treated plates (Greiner Bio One) using a multidrop dispenser and incubated at 37 degrees C, 5% CO2, under a humidified atmosphere for 5 hours. Twenty-three nanoliters of compounds and controls (neutral control DMSO or positive control bortezomib at final concentration of 2.3 uM) were subsequently transferred by Kalypsys pintool. For primary screens, the MIPE collection was tested at 11-point dilutions (final concentrations range from 0.78 nM to 46 µM) and the NPC collection at 8-point dilutions (final concentrations range from 0.59 nM to 46 µM). Compounds tested in follow-up screens were assayed at 11-point dilutions. Cells were incubated for 48 hours, followed by addition of 3 uL of CellTiter-Glo (Promega). After a 15min incubation at room temperature, samples were analyzed for luminescence intensity using a ViewLux High-throughput CCD imager equipped with clear filters.
# % is set by controls: 0 for no effect and ±100 for the full control effect; potency is the fitted concentration of half-maximal effect; tags give direction and shape of the fitted curve.
SMILES,Potency,"activity change, negative = cytotoxic"
CCCCOc1ccc(C(=O)CCN2CCCCC2)cc1,"inconclusive: 33.5 µM [cytotoxic, single point]",
CCN(CC)CCCN(c1ccccc1)C1Cc2ccccc2C1,"inconclusive: 21.1 µM [cytotoxic, single point]",
C=C1C[C@H]2[C@@H]3C=C(C)C4=CC(=O)CC[C@]4(C)[C@H]3CC[C@]2(C)[C@@]1(OC(C)=O)C(C)=O,,inactive: -12.6%
CCCCCCCN(CC)CCCC(O)c1ccc(NS(C)(=O)=O)cc1 (stereo not given),"inconclusive: 29.6 µM [cytotoxic, single point]",
Nc1nc(N)c2nc(CNc3ccc(C(=O)NC(CCC(=O)O)C(=O)O)cc3)cnc2n1 (stereo not given),"inconclusive: 0.0296 µM [cytotoxic, full curve, poor fit]",
CN(C)CCCOc1nn(Cc2ccccc2)c2ccccc12,"inconclusive: 16.8 µM [cytotoxic, partial curve, poor fit]",
C=CCNC(N)=S,,inactive: -1.41%
COc1ccc(CCN2CCC(Nc3nc4ccccc4n3Cc3ccc(F)cc3)CC2)cc1,"inconclusive: 33.5 µM [cytotoxic, single point]",
CCCCCCNC(=O)n1cc(F)c(=O)[nH]c1=O,"inconclusive: 2.11 µM [cytotoxic, full curve] and inconclusive: 2.35 µM [cytotoxic, full curve, poor fit]",
CCOC(=O)[C@H](CCc1ccccc1)N[C@@H](C)C(=O)N1CCCC1C(=O)O (stereo not given in full),active: 18.7 µM,
CC(=O)OCC(=O)[C@@]12OC(C)(C)O[C@@H]1C[C@H]1[C@@H]3C[C@H](F)C4=CC(=O)C=C[C@]4(C)[C@@]3(F)[C@@H](O)C[C@@]12C,,inactive: -17%
CCCCCCCCNC(C)C(O)c1ccc(SC(C)C)cc1 (stereo not given),"inconclusive: 26.6 µM [cytotoxic, single point]",
CNc1nc(-c2ccc3c(N)n[nH]c3c2)cc(N2C[C@@H](C(=O)NC3CCCCC3)CC[C@@H]2C)n1,"inconclusive: 29.6 µM [cytotoxic, single point]",
Oc1c(Cl)cc(Cl)c(Cl)c1Cc1c(O)c(Cl)cc(Cl)c1Cl,active: 21.1 µM,
CN(C)c1ccc(-c2nc3ncc(Cl)c(N4CCN(CC(=O)Nc5nccs5)CC4)c3[nH]2)cc1,"inconclusive: 2.35 µM [cytotoxic, full curve]",
Cc1cc(NC(=O)Nc2ccc(N(C)C)cc2)c2cc(F)cc(F)c2n1,,inactive: -23.1%
Cc1ccc(S(=O)(=O)Nc2cc(Cl)ccc2C(=O)Nc2nc(-c3ccccc3)cs2)cc1,"inconclusive: 9.35 µM [cytotoxic, full curve]",
Nc1ccn([C@@H]2O[C@H](CO)[C@@H](O)C2O)c(=O)n1 (stereo not given in full),,inactive: 10.6%
CC/C(=C(\c1ccccc1)c1ccc(OCCN(C)C)cc1)c1ccccc1,"inconclusive: 33.5 µM [cytotoxic, single point]",
CC(=CC(=O)Nc1ccccc1C(=O)O)c1ccc2ccccc2c1,"inconclusive: 37.2 µM [cytotoxic, single point]",

SMILES,Potency,"activity change, negative = cytotoxic"
CCCCC(CC)COC(=O)/C=C/c1ccc(OC)cc1 (stereo not given),"inconclusive: 6.68 µM [cytotoxic, partial curve]",
C[C@@H]1COC(Nc2ccc3ncnc(Nc4ccc(OCc5nccs5)c(Cl)c4)c3c2)=N1,active: 0.935 µM,
COc1ccc2c3n(c(=NC(=O)c4cccnc4)nc2c1OC)CCN3,active: 0.743 µM,
CCCCCCCCCCCCCCCCCC(=O)OCC(O)CO (stereo not given),,inactive: -18.5%
COc1cc(C(=O)OCCCN2CCCN(CCCOC(=O)c3cc(OC)c(OC)c(OC)c3)CC2)cc(OC)c1OC,"inconclusive: 16.8 µM [cytotoxic, single point]",
Cc1cc(Cl)ccc1OCCCC(=O)NO,active: 2.96 µM,
COc1cc(N2CCC(C(N)=O)CC2)ccc1Nc1nc(N)c(Cl)c(Nc2ccccc2S(=O)(=O)C(C)C)n1,active: 1.18 µM,
Cc1cc(N)c2cc(NC(=O)Nc3ccc4nc(C)cc(N)c4c3)ccc2n1,"inconclusive: 21.1 µM [cytotoxic, single point]",
NC(=O)c1cccc(-c2cccc(OC(=O)NC3CCCCC3)c2)c1,"inconclusive: 14.8 µM [cytotoxic, partial curve]",
C=C1[C@H](n2cnc3c(=O)[nH]c(N)nc32)C[C@H](O)[C@H]1CO,"inconclusive: 14.8 µM [cytotoxic, partial curve]",
Nc1ncnc2nc[nH]c12,,inactive: 23.1%
CCC[C@H](Nc1nc(-c2ccc(NC(=O)NCC)c(OC)c2)ncc1C)c1cccnc1,active: 0.0187 µM,
C[C@H](Cn1cnc2c(N)ncnc21)OCP(=O)(O)O,,inactive: 5.78%
CC(CN1c2ccccc2Sc2ccccc21)N(C)C (stereo not given),,inactive: -18.5%
O=[N+]([O-])c1ccc(O)c2ncccc12,"inconclusive: 13.3 µM [cytotoxic, partial curve, poor fit]",
CC(C[N+](C)(C)C)OC(N)=O (stereo not given),inactive,
CC(=O)O[C@]1(C(C)=O)CC[C@H]2[C@@H]3C[C@H](C)C4=CC(=O)CC[C@]4(C)[C@H]3CC[C@@]21C,"inconclusive: 33.5 µM [cytotoxic, single point]",
O[C@@H](CNC[C@H](O)[C@H]1CCc2cc(F)ccc2O1)[C@@H]1CCc2cc(F)ccc2O1,"inconclusive: 29.6 µM [cytotoxic, single point] and inconclusive: 33.5 µM [cytotoxic, single point]",
C[C@@H](N)C1CCC(C(=O)Nc2ccncc2)CC1 (stereo not given in full),"inconclusive: 23.5 µM [cytotoxic, single point]",
CCCCCN=C(N)N/N=C/c1c[nH]c2ccc(OC)cc12,"inconclusive: 13.3 µM [cytotoxic, partial curve, poor fit]",
